Test results taken from PMC6919601, “Identification of Plasmodium dipeptidyl aminopeptidase allosteric inhibitors by high throughput screening” (PLoS ONE, 2019).
Among all 110,000 compounds or so, about 230 (0.21%) showed an effect of 50% or more. This is one part of the list. Where a SMILES comes first, the peptide text is derived from it.

Biological target: DPAP1 (Plasmodium falciparum, UniProt Q8IIJ9)
Experiment: primary screen, percent inhibition; read by cleavage of a fluorogenic dipeptide substrate; higher = more effect of the substance
Parameters: species or system P. falciparum D10 trophozoite lysates; single well
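Note: 30 min substrate incubation versus DMSO and 10 µM JCP410 controls.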

DPAP1, sequence (Q8IIJ9 whole entry, looked up): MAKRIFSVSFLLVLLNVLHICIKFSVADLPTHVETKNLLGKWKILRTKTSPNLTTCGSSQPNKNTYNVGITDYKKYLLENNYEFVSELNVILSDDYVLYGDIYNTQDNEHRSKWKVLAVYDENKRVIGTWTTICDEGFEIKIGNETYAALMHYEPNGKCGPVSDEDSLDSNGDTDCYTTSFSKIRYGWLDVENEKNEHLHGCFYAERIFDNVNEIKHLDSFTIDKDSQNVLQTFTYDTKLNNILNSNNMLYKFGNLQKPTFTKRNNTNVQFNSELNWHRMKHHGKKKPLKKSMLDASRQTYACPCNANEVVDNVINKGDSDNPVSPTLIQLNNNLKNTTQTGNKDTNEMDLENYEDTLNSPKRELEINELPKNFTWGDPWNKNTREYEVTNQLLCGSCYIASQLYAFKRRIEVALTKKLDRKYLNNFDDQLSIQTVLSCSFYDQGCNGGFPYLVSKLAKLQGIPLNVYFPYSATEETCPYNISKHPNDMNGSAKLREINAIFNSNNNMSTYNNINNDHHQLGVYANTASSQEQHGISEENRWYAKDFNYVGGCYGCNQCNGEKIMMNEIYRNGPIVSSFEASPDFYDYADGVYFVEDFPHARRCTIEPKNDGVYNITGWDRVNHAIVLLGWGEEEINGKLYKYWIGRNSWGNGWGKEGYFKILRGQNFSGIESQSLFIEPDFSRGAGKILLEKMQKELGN

Compound	% Inhibition @ 10 uM [%]
COc1ccc(NC(=O)C(C)Oc2ccc(C)cc2)cc1 (stereo not shown)	0.795
CN(C)S(=O)(=O)c1ccc2nc(NC(=O)c3ccncc3)sc2c1	7.16
CCC(C(=O)NCc1ccccn1)n1nc(C)n2c(cc3sccc32)c1=O (stereo not shown)	-3.35
O=C1C2CCCCC2C(=O)N1Cc1cccnc1 (stereo not shown)	-2.8
CCCOc1c(Br)cc(Br)cc1C=C1C(=O)NC(=O)NC1=O	24.7
CC(=O)c1ccc(N2CCN(Cc3cccc(C)c3)CC2)cc1	0.815
CCN(CC)S(=O)(=O)c1nnc(NC(=O)c2cccc(C)c2)s1	1.68
CCOC(=O)N1CCC(NC2=NS(=O)(=O)C(c3ccc(F)cc3)=C2C)CC1	-2.44
CCO/C(O)=C1\C(C)=NC(=S)NC1c1c(OCC(=O)N2CCOCC2)ccc2ccccc12 (stereo not shown)	-3.48
CCCCn1cnc2scc(-c3ccc(OC)c(OC)c3)c2c1=O	5.09
CN(C)CCN(C(=O)CN1C(=O)c2ccccc2C1=O)c1nc2ccc(Cl)cc2s1	-4.44
Cc1ccc2oc(=O)c3cc(C(=O)N(C)C4CCCCC4)sc3c2c1	3.06
O=C1CC(=O)N(c2ccc(Cl)cc2)C(=O)N1	0.266
CC1=C(C(=O)Nc2ccccc2C)C(c2cccc(Br)c2)n2ncnc2N1 (stereo not shown)	-5.92
CCC(C(=O)Nc1ccccn1)c1ccccc1 (stereo not shown)	1.15
CCC(C)NCc1c(C)sc(C)c1CNC(C)CC (stereo not shown)	-1.29
CN(C(=S)NCc1ccccc1)C1CCC2(CCCCC2)CC1	-6.06
COc1ccc(S(=O)(=O)N2CCC(NC(=O)NCC(C)O)CC2)cc1 (stereo not shown)	3.88
Cc1nc(SCC(=O)c2ccc(F)cc2)c(C#N)c(C)c1C	2.01
CCC1CCCCN1C(=O)c1cc2c(s1)-c1ccccc1OC2 (stereo not shown)	-1.58
CCOc1cc(C2C(C#N)=C(N)OC3=C2C(=O)CC(C)(C)C3)ccc1O (stereo not shown)	-4.43
O=C(O)CC1C2CCCC(C2)C(=O)C1C(=O)O (stereo not shown)	4.42
CCC(C)NC(=O)CSc1nc2nc(C)c(Cc3ccccc3Cl)c(C)n2n1 (stereo not shown)	7.99
Cc1ccccc1C(=O)N1CCN(c2cccc(C)c2C)CC1	5.24
Cc1nn(CC(=O)NCCc2nc3ccccc3[nH]2)c(C)c1Br	-2.28

Compound	% Inhibition @ 10 uM [%]
Cc1ccc(C(C#N)NC(=O)C(Cc2c(F)cccc2F)NC(=O)c2ccc(-c3ccccc3Cl)cc2)o1 (stereo not shown)	-1.82
CCOc1ccc(NC(=O)c2cccc([N+](=O)[O-])c2)cc1	0.317
Cc1nn(-c2ccc(F)cc2)c(-n2cccc2)c1C(=O)NC(C)c1ccccc1 (stereo not shown)	-6.11
CN(C(=O)c1ccc(Cl)cc1)c1ccccc1	-8.01
O=C(c1cnc(N2CCN(c3ncccn3)CC2)c2ccccc12)N1CCN(c2ccccn2)CC1	5.88
CC(C)(C)c1ccc(-c2nnc(SCC(=O)NCC3CCCO3)n2-c2ccccc2)cc1 (stereo not shown)	-4.48
OC(COc1ccc(Cl)cc1)CN1CCCCC1 (stereo not shown)	3.44
CC(C)(C)C(=O)Nc1ccc(C(=O)Nc2cccnc2)cc1	-2.75
CCCCN(C(=S)SC)C1CCS(=O)(=O)C1 (stereo not shown)	3.7
CN(C)CCCN(CCCN(C)C)Cc1cccnc1	1.62
COc1ccc(-c2oc3ncnc(NCCN4CCOCC4)c3c2-c2ccc(OC)cc2)cc1	-1.05
COc1ccc(C2=NOC(CN3C(=O)c4ccccc4S3(=O)=O)C2)cc1 (stereo not shown)	0.221
N#CC1=C(N)SC(N)=C(C#N)C1c1ccc(Cl)c(Cl)c1	40.5
CC(=O)N1C(NCc2ccccc2)CC(C)N1c1ccccc1 (stereo not shown)	1.1
CC(C)C[C@H](NC(=O)c1cc(C(C)(C)C)c(O)c(C(C)(C)C)c1)C(=O)NCC#N	-12.7
Cc1ccc(N/C=C(\C#N)C(=O)NC(=O)Cc2ccccc2)cc1	0.687
CCN1CCN(c2nc(-c3ccccc3O)nc3ccccc23)CC1	0.528
CC1CN(c2ccccc2Br)NC1=O (stereo not shown)	-0.0217
CCOc1nc(NC(=O)NC(=O)c2cccc(F)c2)nc(-c2ccccc2)n1	3.53
CNS(=O)(=O)c1cc(-c2nnc(O)c3ccccc23)ccc1C	-5.28
O=C(CSc1nc2ccccc2s1)Nc1ccc(Br)cn1	4.33
CN1C2CCC1CC(=NOC(=O)c1ccc(F)cc1)C2	-3.21
COc1ccc(CC(=O)NC(c2ccccc2)c2ccccc2)cc1	0.135
O=C(c1ccccc1)c1ccc2nc(N3CCN(c4ccccn4)CC3)c3nncn3c2c1	-7.91
CC1CC(C)CN(CCCNC(=O)Cn2ncc3ccc(Cl)cc32)C1 (stereo not shown)	-2.88

Compound	% Inhibition @ 10 uM [%]
c1ccc(-c2nnn3c2nc(NCc2ccc4c(c2)OCO4)c2ccccc23)cc1	-2.92
Cc1cc(Br)ccc1NC(=O)C1CC(=O)N(c2ccc(F)cc2)C1 (stereo not shown)	-1.92
O=[N+]([O-])c1cccc(CN2CCN(c3ccc(Cl)cc3)CC2)c1	-0.0404
CCC1CCCCN1C(=O)c1ccccc1NC(=O)c1ccco1 (stereo not shown)	-3.09
N=c1n(CC(=O)O)c2ccccc2n1Cc1ccccc1	0.992
C=CCN(Cc1ccccc1F)C(=O)Nc1cccc(Cl)c1	-7.99
O=C(COc1ccc2ccccc2c1Br)N1CCCCC1	-2.8
Cc1cc(C)c2c(N)c(C(=O)Nc3ccc(F)c(Cl)c3)sc2n1	4.08
COc1cccc(/C=c2\sc3nc(-c4ccccc4C)nn3c2=O)c1	-3.21
COc1ccc(Cl)cc1-c1nc(-c2cccc(C)c2)no1	-10
COc1ccc(-c2noc(NCCc3ccc(S(N)(=O)=O)cc3)n2)cc1OC	9.25
CCc1ccc(CNC(=O)C2CCN(c3ncnc4c3nc3n4CCCCC3)CC2)cc1	3.27
CCOc1cc(C2c3c(oc4ccccc4c3=O)C(=O)N2Cc2ccccc2)ccc1O (stereo not shown)	5.3
COc1ccc2[nH]c3c(=O)n(CCC(=O)NCCC(C)C)c(=S)[nH]c3c2c1	1.15
Cc1ccc(-c2[nH]nc3c2C(c2ccccc2F)C(C#N)=C(N)O3)cc1 (stereo not shown)	-4.65
CCN(CC)C(=O)C(C)N(C#N)c1nc(N(C)C)nc(N(C)C)n1 (stereo not shown)	0.746
CCOc1ccc(CCNCc2ccc(C(=O)O)s2)cc1OCC	-7.93
COc1cc(OC)c(/C=C2/NC(=O)NC2=O)cc1Br	7.76
CCCCOc1ccc(CN2CCCCC2CC)cc1 (stereo not shown)	-4.14
Cc1ccc(C=C2C(=O)OC(C)(C)OC2=O)o1	-7.23
CC(CNCc1c(C(=O)O)n(Cc2ccccc2F)c2ccccc12)c1ccccc1 (stereo not shown)	-1.65
CCOC(=O)CSc1nc(O)cc(OC)n1	-0.712
COc1cc2nc(NCc3ccc(F)cc3)n3nc(-c4ccccc4)nc3c2cc1OC	-0.692
Cc1ccc(C)c(S(=O)(=O)NCc2ccc(C(=O)N3CC(C)OC(C)C3)cc2)c1 (stereo not shown)	-3.08
COc1cccc(C2=Nn3c(nnc3C(F)(F)F)SC2)c1	-6.25

Compound	% Inhibition @ 10 uM [%]
C=CCn1c(SCC(=O)NCCN2CCOCC2)nc2sc3c(c2c1=O)CCCC3	1.02
O=S(=O)(NCCC1=CCCCC1)c1ccc(-c2ccc(O)nn2)s1	0.182
Cc1ccc(C)c(NC(=O)CCCC(=O)Nc2cc(C)ccc2C)c1	6.24
COc1cc(C(=O)N2CCN(C(=O)c3cc(OC)c(OC)c(OC)c3)CC2)cc(OC)c1OC	-1.61
COc1cc(CNc2nc[nH]n2)ccc1OCC(=O)NC1CCCCC1	2.48
N#CC1=C(N)OC2=C(C(=O)CCC2)C1c1ccc(F)c(Br)c1 (stereo not shown)	-3.13
N#C/C(=C\c1c(Oc2ccccc2Cl)nc2ccccn2c1=O)C(=O)NCc1ccco1	-0.828
CCCC(=O)NCCc1cc(OC)c(OC)cc1Br	-1.11
Cc1cc(NCc2ccccc2)cc(=O)n1Cc1ccccc1	-0.0555
CN1Cc2cccc3c2C(Cc2ccccc2S3)C1 (stereo not shown)	3.05
Cc1cc(C)cc(N2C(=O)C3C4C=CC(C5CC45)C3C2=O)c1 (stereo not shown)	-3.78
O=C(NCc1ccc2c(c1)OCO2)c1nnc(-c2cccc(Cl)c2)o1	5.37
Cc1cccc(CN2CCC(CNC(=O)NCc3noc4ccccc34)CC2)c1	4.84
COc1ccc(-c2nnc(-c3ccc4c(c3)OCO4)o2)cc1OC	7.87
CCCCNC(=O)c1cc(S(=O)(=O)N2CCCCC2)ccc1F	1.42
CCCCNC(=O)CNC(=O)CNC(=O)c1ccccc1 (HELM PEPTIDE1{[O=C(c1ccccc1)[*:2]].G.G.[CCCCN[*:1]]}$$$$V2.0)	-0.598
CCC(C(=O)NCc1cccc(Cl)c1)n1ccc2cc(S(=O)(=O)N3CCCCC3)ccc21 (stereo not shown)	-2.68
CC(CCc1ccco1)N(C)S(=O)(=O)c1csc(C(N)=O)c1 (stereo not shown)	-2.5
CC1CCN(CCCNC(=O)c2ccc(CS(=O)(=O)Cc3ccc(Cl)cc3)o2)CC1	3.93
NCC(CC(=O)O)c1ccccc1 (stereo not shown)	-0.597
COc1cc(NC(C)CCCN)c2ncccc2c1Oc1cccc(Cl)c1 (stereo not shown)	1.52
c1ccc(N2CCN(c3nnc(Cc4cccnc4)c4ccccc34)CC2)nc1	-4.69
Cn1c(CNc2ccc(Br)cc2)nc2ccccc21	1.72
CCOC(=O)N1CCN(C(=O)CCc2nc(O)c3c4c(sc3n2)CCCC4)CC1	-0.228
CCCCc1ccc(NC(=O)C2CCN(S(C)(=O)=O)CC2)cc1	-5.01
